# Experimental data: paper PMC12040169 (PLOS Biology, 2025)
# This is one part of the list.
# Tested on: T1, C. trachomatis L2/434/Bu expressing GFP (CTL2-GFP)
# T1 construct: L2/434/Bu GFP intracellular growth in HeLa cells
# Design: species or system HeLa; C. trachomatis total inclusion area by high-content imaging, normalised to DMSO
# Conditions: total inclusion area; 28.5 h, 10 µM; inhibitor
# In short: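 High-content images of fixed, Hoechst-stained infected cultures supply inclusion area and count (growth) plus nuclei number (viability), complementing bulk GFP/resorufin fluorescence. MIC determination is unchanged from the primary assay.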
row,SMILES,% of control remaining
1,COc1ccc(C(C)NC(=O)c2cc(-c3ccc(F)cc3)[nH]n2)cc1 (stereo not drawn) [CBK288060],89.1435
2,CNC(=O)CSc1nc2ccccc2nc1C(F)(F)F [CBK107206],90.8222
3,Nc1ncc(-c2ccc3c(c2)OCO3)nc1-c1ccc(O)cc1 [CBK122505],73.1485
4,COc1ncccc1CNC(=O)Nc1cccn(CC(F)(F)F)c1=O [CBK305216],42.1291
5,CCOc1cc(/C=C2\SC(=S)N(Cc3cccnc3)C2=O)ccc1OCc1cccc(F)c1 [CBK264615],95.5864
6,Cc1ccc(OCC(=O)O/N=C(\N)c2ccccn2)cc1C [CBK264755],124.818
7,OCCN(CCO)c1cncc(-c2cccc(C(F)(F)F)c2)n1 [CBK037917],106.073
8,O=c1nc2c(cn1[C@H]1C[C@@H](O)[C@@H](CO)O1)Sc1ccccc1N2 [CBK201237],138.332
9,c1ccc(Cn2ccc3c(N4CCNCC4)nccc32)cc1 [CBK051672C],101.787
10,CC(C)(C)OC(=O)N1CCC2(CC1)N=C(c1ccccc1)C(=S)N2 [CBK288478],90.1386
11,CCOc1cc(-c2nc3sc(CC)cc3c(=O)[nH]2)ccc1OCC(=O)O [CBK298291],91.9968
12,Cc1c(C(=O)N2CCC(c3ccncc3)CC2)oc2ccccc12 [CBK282413],94.3355
13,COCCSc1ccccc1C(=O)Nc1ccc(S(N)(=O)=O)cc1 [CBK267530],93.0779
14,Cc1cc(N2CCN(C(=O)CCc3nccs3)CC2)nc(C(C)C)n1 [CBK304778],28.1324
15,CC(C)(C)NC(=O)Cn1cncc1-c1[nH]c2ccccc2c1Cl [CBK281981],98.1448
16,CC(C)(CO)Cn1c(=O)[nH]c2ncc(-c3cccnc3)nc21 [CBK064697],134.184
17,O=C(Nc1ccc(F)c(C(F)(F)F)c1)c1cncc(-c2ccc(C(=O)N3CCOCC3)cc2)c1 [CBK160216],94.4484
18,Cc1nc2c(C(=O)NCCNC(=O)c3cccnc3)ncn2c(C)c1Cc1ccc(F)c(Cl)c1 [CBK169332],133.014
19,COc1cc(-c2ccc(C(=O)N(C)CCN(C)C)c(N(C)C)n2)cc(OC)c1OC [CBK106076],74.1371
20,N#CCCn1cc(C(=O)N2CCOCC2)c(-c2cc3ccccc3o2)n1 [CBK306203],43.6883
21,CN(C)c1cccc(Nc2ccc(-c3ccc(CCC(=O)O)cc3)cn2)c1 [CBK036918],124.289

row,SMILES,% of control remaining
1,CC(C)C(NC(=O)C(C)(C)Oc1ccc(Cl)cc1)C(=O)O (stereo not drawn) [CBK266138],112.038
2,CCCCC1CCC(C(=O)Nc2ncccn2)CC1 (stereo not drawn) [CBK027423],90.547
3,CC(=O)Nc1ccc(CCOc2nccnc2-c2ccccc2)cc1 [CBK106683],95.1109
4,CS(=O)(=O)N1CCc2cc(S(=O)(=O)N3CCN(c4ccc([N+](=O)[O-])c(NCc5ccccc5)c4)CC3)ccc21 [CBK268311],88.4862
5,COc1cc(C)c(Nc2cccc(-c3ccsc3)n2)cc1OC [CBK037025],65.6134
6,Cn1ccnc1C1(O)CCN(C(=O)c2ccc(F)cc2F)CC1 [CBK283552],44.6026
7,Nc1nonc1C(=O)NCCNc1ccc([N+](=O)[O-])cn1 [CBK268279],100.996
8,COc1cc(C(=O)NCC(=O)O)cc(Cl)c1OCC(C)C [CBK297485],85.3391
9,COc1cc(C(=O)N2CCCC3(CCN(C(=O)c4cc(F)c(F)cc4F)C3)C2)cc(OC)c1OC (stereo not drawn) [CBK131563],85.1099
10,Cc1cc(C(=O)N2CCN(c3ncccn3)CC2)n[nH]1 [CBK144526],100.466
11,O=C(NC1CCNC1)c1cccc(S(=O)(=O)NCc2ccsc2)c1 (stereo not drawn) [CBK306706],112.545
12,CCCNC(=O)Cn1c(=O)n(Cc2cccs2)c2ncccc21 [CBK283843],80.1287
13,COc1cc2c3c(cccc3c1)CC(C)(N(C)C)C2 (stereo not drawn) [CBK024357C],91.3266
14,Cn1cc(-c2ccccc2CN2CCCC2)c2onc(-c3ccccc3)c2c1=O [CBK036319C],111.182
15,CCCn1c(=O)c(Cc2ccccc2)c(O)c2ccccc21 [CBK291175],99.4647
16,NS(=O)(=O)c1ccc(Cl)c(Cl)c1 [CBK015652],90.1269
17,Cc1nc(N)c(CNC2CCCCC2)c(O)n1 [CBK019809],20.6868
18,NS(=O)(=O)c1ccccc1Sc1ccccc1 [CBK020524],28.8082
19,O=C(NC1CC1)c1nn(-c2ncccn2)c2ccccc12 [CBK048508],102.199
20,Cc1ccc(S(=O)(=O)Nc2sccc2C(=O)N2CCN(C)CC2)cc1 [CBK042264],95.718
21,Cc1ccc2[nH]c(-c3cccc(NC(=O)c4cccc(CN5CCCC5=O)c4)c3)nc2c1 [CBK285838],43.8188

row,SMILES,% of control remaining
1,Cc1cc(C)cc(C(O)CNC2CCN(Cc3cscn3)CC2)c1 (stereo not drawn) [CBK304457],34.8248
2,CCOc1c(Br)cc(CNc2nc[nH]n2)cc1OC [CBK268009],108.108
3,c1ccc(-c2ccccc2CN2CCN(c3nccnc3OCCN3CCOCC3)CC2)cc1 [CBK082893T],85.0309
4,CCn1c(SCc2nc(-c3ccc(Br)cc3)no2)nnc1-c1c[nH]c2ccccc12 [CBK268668],114.149
5,O=C(O)CNC(=O)CCS(=O)(=O)c1ccc(F)cc1 [CBK286580],78.2391
6,O=C(CCc1cc(F)ccc1F)NCCCn1nc2n(c1=O)CCCC2 [CBK305782],28.3499
7,CC(C)Nc1cc(SCc2ccc(Cl)c(Cl)c2)ncn1 [CBK103665],66.6087
8,Cc1nnc(SCC(=O)NNC(=O)c2cccs2)[nH]1 [CBK266879],78.17
9,CC(NC(=O)c1cccc(Oc2ccccc2)c1)c1ccncc1 (stereo not drawn) [CBK270327],94.5414
10,COc1cc(Nc2nc(-c3c(OC)cccc3OC)cn3ccnc23)cc(OC)c1OC [CBK037395],95.9318
11,Cc1ccc(C(NC(=O)Cn2ccnc2)c2ccncc2)cc1C (stereo not drawn) [CBK281591],75.2093
12,O=C(/C=C/c1cccnc1)Nc1cccc(N2CCNCC2)c1 [CBK034128T],74.0687
13,O=C(NCCN1CCCCC1)C1CC(=O)N(Cc2ccco2)C1 (stereo not drawn) [CBK304877],120.983
14,Nc1nc2c(s1)c(=O)[nH]c(=O)n2-c1ccc(Cl)cc1 [CBK269891],73.4575
15,Cc1cc(N2CCCC(COc3ccccc3F)C2)nc(N)n1 (stereo not drawn) [CBK306714],5.649
16,O=C(CCCCCN1C(=O)c2ccccc2C1=O)Nc1cccc(C(=O)O)c1 [CBK287261],54.4439
17,CS(=O)(=O)c1ccc(-n2cc(CN3CCC(Sc4ccccc4)CC3)nn2)cc1 [CBK149468],101.207
18,O=C(CN1CCc2c([nH]c3ccccc23)C12CCN(Cc1ccc(F)cc1)C2)Nc1ccccc1 (stereo not drawn) [CBK059450],80.691
19,CCCC1(C)NC(=O)N(Cc2coc(-c3cccs3)n2)C1=O (stereo not drawn) [CBK305594],29.229
20,O=C(O)CC(c1ccncc1)c1c[nH]c2ccccc12 (stereo not drawn) [CBK286913],107.243
21,O=[N+]([O-])c1ccc(N/N=C/c2cnn(-c3ccccc3)c2)cc1 [CBK018746],69.7712

row,SMILES,% of control remaining
1,O=C(NCCn1c(C(F)(F)F)cc(=O)c2cccc(F)c21)C1CC1 [CBK284807],119.435
2,COc1ccc(Cl)cc1S(=O)(=O)N1CCC(C(=O)O)CC1 [CBK269607],99.3483
3,CCOC(=O)Cc1csc(NS(=O)(=O)c2cc(C)c(Cl)cc2Cl)n1 [CBK012872],96.5964
4,CC(=O)Nc1cccc(-c2cncc(NCc3ccco3)n2)c1 [CBK065290],137.696
5,Cc1ccc(S(=O)(=O)Nc2ccccc2-c2nc3ccccc3c(=O)o2)cc1 [CBK087613],87.3317
6,O=c1[nH]c2ncc(-c3ccco3)nc2n1Cc1cccs1 [CBK064438],134.022
7,CC1=C[C@@H](CNC(=O)NC2CCCCC2)[C@H](C(C)C)C[C@H]1CC(=O)O [CBK289211],108.426
8,CN(C)CCN(C)c1nc(-c2ccc(Oc3ccccc3)cc2)cn2ccnc12 [CBK066469],149.335
9,CC1c2ccsc2CCN1S(C)(=O)=O (stereo not drawn) [CBK023574],76.4178
10,Cc1ccc(OC(=O)CCC(=O)Nc2ccc(S(N)(=O)=O)cc2)cc1 [CBK264708],101.248
11,COCCN1CCN(c2nc(-c3ccncc3)nc3c2CCC3)CC1 [CBK306101],115.679
12,COc1ccc(-c2c3c(nc4sc(C#N)c(N)c24)CCCC3)cc1 [CBK270279],65.3144
13,O=C(N[C@H]1CCN2C(=O)c3cc(-c4cccs4)ccc3NC(=O)[C@H]12)c1cccs1 [CBK289336],93.5818
14,Cc1nc(-c2cccnc2)[nH]c(=O)c1CC(=O)N1CCN(C)CC1C (stereo not drawn) [CBK304950],142.177
15,O=S(=O)(Nc1ncccn1)c1ccc(NC(=S)Nc2ccc3c(c2)OCO3)cc1 [CBK267046],25.5935
16,CCCCOc1ccc(-c2ccc(C#N)cc2)cc1 [CBK056958],60.8784
17,CN1CCC(N2CCN(C(=O)NCc3ccc4c(c3)OCO4)CC2)CC1 [CBK155885],98.9837
18,O=C1CN(C(=O)Nc2ccccc2Cl)CCN1 [CBK155862],93.8808
